Test results published in PubChem BioAssay AID686979 (National Center for Advancing Translational Sciences (NCATS), 2013).
The whole screen tested about 420,000 compounds, of which about 50,000 (12%) were called active. Inconclusive results, whose numbers are uncertain, are shown with a selection of clear calls. The call rests on the fitted dose curve; in most records, active means well fitted inhibition curve with a large enough effect; inconclusive means small, poorly fitted or top-dose-only effect; inactive means flat fitted curve, though single readings scatter. No potency is given beside an inconclusive call; the fits are too rough.

test: qHTS for Inhibitors of human tyrosyl-DNA phosphodiesterase 1 (TDP1): qHTS in cells in presence of CPT; conditions: chicken DT40 Tdp1-/-;hTDP1 cells + 20 nM CPT, ATP luminescence, 48 h; activity change, negative = growth inhibition: at 46.2 µM (top of the series) unless noted; further: nearly all actives have a fitted effect of over 55% in size
How it was run: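 Chicken DT40 Tdp1-/- cells stably complemented with human TDP1 were seeded at 400 cells/well in medium containing 20 nM camptothecin, exposed to pin-transferred compounds, and grown at 37 °C for at least 48 hr. Viability was read as ATP luminescence.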
On the % scale 0 is the no-effect control and ±100 the full control effect; potency means the concentration at half of the fitted maximal effect; tags describe the fitted curve by direction and shape.

SMILES	Potency	activity change, negative = growth inhibition
CCOc1ccc(C(=O)NC2CC(=O)N(c3ccc(C)cc3)C2)cc1OCC (configuration not stated)	inactive	
COc1ccc(S(=O)(=O)N2CCN(c3ccc4nnc(-c5ccc(F)cc5)n4n3)CC2)cc1	active: 11.6 µM	
Cc1c(C(=O)OCC(=O)NCCN2C(=O)CSC2=O)cccc1[N+](=O)[O-]	inactive	
O=C(COc1ccc(Cl)cc1)Nc1nnc(C2=COCCO2)o1	inactive	
O=C(NCc1cccc(Cl)c1)C1Cc2c(-c3cccc(F)c3)ccnc2O1 (configuration not stated)	active: 20.6 µM	
COc1cc(OC)cc(-c2nn[nH]n2)c1	inactive	
CCOc1ccc(CN2CCN(Cc3cc4ccccc4o3)CC2CCO)cc1 (configuration not stated)	inconclusive [inhibitor, single point]	
C[C@@H]1CN(C(=O)c2nc3ccc(Cl)cn3c2CN[C@H]2CCCCNC2=O)C[C@H](C)O1	inconclusive [inhibitor, single point]	
COc1ccc(/C=N/Nc2nc(N)cc(Cl)n2)cc1OC	inconclusive [inhibitor, partial curve, poor fit]	
O=C(COc1ccc(Cl)cc1Cl)OCC(=O)N1CCCc2ccccc21	inactive	
COc1ccc(NC(=O)CSc2nc3c(c(=O)n2-c2ccc(F)cc2)SCC3)cc1	inconclusive [inhibitor, full curve]	
Cc1csc(/C(=N/OC(=O)c2ccco2)C(N)=O)n1	inactive	
CC1CCN(S(=O)(=O)c2ccc3c(ccn3CCC(=O)NCc3ccccc3F)c2)CC1	active: 16.4 µM	
C#CCN(C[C@@H]1[C@@H](OC(=O)NCc2ccc(OC)c(OC)c2)[C@@H](OC(=O)NCc2ccc(OC)c(OC)c2)CN(C(=O)OC(C)C)N1C(=O)OC(C)C)S(=O)(=O)c1ccc(C)cc1	active: 11.6 µM	
Cc1ccc(OCc2cc(C(=O)NCC(C)(C)N3CCOCC3)no2)cc1C	inconclusive [inhibitor, single point]	
O=c1cc(O)c2sc(Nc3ccc(Cl)c(F)c3)nc2[nH]1	active: 5.17 µM	
COc1ccc(C(C(=O)NC(C)(C)C)n2c(=O)c(-c3ccco3)nc3ccccc32)cc1 (configuration not stated)	inconclusive [inhibitor, single point]	
N#CCc1ccc(OC(=O)c2ccncc2)cc1	inactive	
COc1ccccc1OCC(=O)NCCSCc1ccccc1Cl	inconclusive [inhibitor, single point]	
CCOc1ccccc1CN1CCNC(=O)C1CC(=O)N(C)C1CCOCC1 (configuration not stated)	inactive	
O=C(COC(=O)CCC(=O)c1cccs1)NC1CCCCC1	inactive	
COC(=O)c1c(C(=O)c2ccc(Br)cc2)n(C)c2ccccc12	inconclusive [inhibitor, single point]	
Cc1ccc(OCCC(=O)OCC(=O)NCCNC(=O)COC(=O)CCOc2ccc(C)cc2)cc1	inactive	
C=CC(=O)N1C/C(=C/c2ccccc2)C(=O)/C(=C\c2ccccc2)C1	active: 0.731 µM	

SMILES	Potency	activity change, negative = growth inhibition
CC(C)N(Cc1ccccc1)C(=S)NC(=O)C1(C)CC1(Cl)Cl (configuration not stated)	inconclusive [inhibitor, single point]	
COc1ccc(CCC(=O)Nc2cccc(S(=O)(=O)N3CCCCCC3)c2)cc1OC	inconclusive [inhibitor, single point]	
COc1ccc(NC(=O)c2c(-c3ccccc3)c(-c3ccccc3)nn(C)c2=O)cc1OC	inconclusive [inhibitor, single point]	
CCC(NC(=O)c1cc(COc2c(F)cccc2F)on1)c1ccncc1 (configuration not stated)	inconclusive [inhibitor, partial curve, poor fit]	
CCOC(=O)N(C)c1c(CC)nc2c(OCc3ccc(F)cc3)cccn12	inconclusive [inhibitor, single point]	
O=C(c1ccc(-c2ccccc2)cc1)C1CCCN(C(=O)c2ccncc2)C1 (configuration not stated)	active: 3.66 µM	
Cc1cccc(NC(=O)CSc2nsc(SCC(=O)Nc3cccc(C)c3)c2C#N)c1	inconclusive [inhibitor, single point]	
CC(C)(C)NC(=O)C1(N2C(=O)c3ccccc3C2=O)CCCC1	inactive	
Cc1cnc(C(=O)Nc2ccccc2F)cn1	inconclusive [inhibitor, single point]	
CCCc1c(C(=O)N/N=C/c2ccc(C)o2)nnn1-c1nonc1N	inconclusive [inhibitor, single point]	
CC1CC(C)CN(CCOc2ccccc2-c2ccccc2)C1 (configuration not stated)	inconclusive [inhibitor, single point]	
CSc1ccc(CN2CCC(Oc3ccc(C(=O)N4CCCC4)cc3)CC2)cc1	inactive	
Cc1ccc(C)c(NC(=S)N2CCN(c3cccc(C(F)(F)F)c3)CC2)c1		inconclusive: -34.8% [inhibitor]
COc1ccc(CC(=O)Nc2ccc(F)c(Cl)c2)cc1S(=O)(=O)N1CCOCC1	inconclusive [inhibitor, single point]	
CNC(=S)N(Cc1cccs1)Cc1cc2cc(OC)ccc2[nH]c1=O	inconclusive [inhibitor, single point]	
COC(=O)c1ccc(COc2ccc(C3C4=C(CCCC4=O)Nc4onc(C)c43)cc2)cc1 (configuration not stated)	inconclusive [inhibitor, single point]	
COC(=O)c1cccc(NC(=O)c2cccc([N+](=O)[O-])c2)c1	inactive	
Cc1ccccc1NC(=O)/C(=C/c1ccco1)c1ccccc1	active: 23.1 µM	
Cn1c(=NC(=O)C(C)(C)C)sc2cccc(F)c21	inconclusive [inhibitor, single point]	
COc1ccc(-c2cn3cccnc3n2)cc1NC(=O)Nc1ccc(Cl)cc1	inconclusive [inhibitor, single point]	
C/C(=N\NC(=O)c1cccs1)c1ccncc1	inactive	
COc1ccc2nc(C)cc(SCC(=O)O)c2c1	inactive	
COc1ccc(-c2coc3cc4oc(=O)cc(C)c4cc23)cc1F		inconclusive: -37.4% [inhibitor]
